{
  "source": "PubChem BioAssay AID686979",
  "about": "(National Center for Advancing Translational Sciences (NCATS), 2013)",
  "note": "In all, about 420,000 compounds went through this assay and about 50,000 (12%) were called active. This list was built around the results that the source calls inconclusive (neither active nor inactive); the mix of calls is not that of the screen. Calls come from the whole dose curve; as a rule, active = well fitted inhibition curve with a large enough effect; inconclusive = small, poorly fitted or top-dose-only effect; inactive = flat fitted curve, though single readings scatter. Potencies of inconclusive entries are left out as doubtful fits. % is set by controls: 0 for no effect and ±100 for the full control effect; potency is the fitted concentration of half-maximal effect; tags give direction and shape of the fitted curve.",
  "data": [
    {"test": "qHTS for Inhibitors of human tyrosyl-DNA phosphodiesterase 1 (TDP1): qHTS in cells in presence of CPT; note: nearly all actives have a fitted effect of over 55% in size", "conditions": "chicken DT40 Tdp1-/-;hTDP1 cells + 20 nM CPT, ATP luminescence, 48 h; activity change, negative = growth inhibition: at 46.2 µM (top of the series)", "outline": "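Cell growth measured by CellTiter-Glo luminescence after a minimum 48 h, 37 C compound exposure with 20 nM CPT in Tdp1-knockout DT40 cells stably expressing hTDP1, seeded 400/well; qHTS titration format.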", "values": [
      {"smiles": "CCCNC(=O)C1CCC(CNS(=O)(=O)c2ccc3c(c2)CC(C)N3C(C)=O)CC1", "note": "(stereo not given)", "activity change, negative = growth inhibition": "inconclusive: -35.2% [inhibitor]"},
      {"smiles": "CN(Cc1ccc(F)cc1)S(=O)(=O)c1nnc(NC(=O)c2ccccc2)s1", "Potency": "inactive"},
      {"smiles": "Cn1cnc2c1c(=O)n(Cc1cccc(Cl)c1)c(=O)n2C", "Potency": "inactive"},
      {"smiles": "O=C(CCl)Nc1cc(S(=O)(=O)N2CCCCCC2)ccc1Cl", "Potency": "active: 3.66 µM"},
      {"smiles": "COc1ccc(-c2c(C)nc(N)nc2-c2ccc(OCc3ccc(C)cc3)cc2O)cc1OC", "Potency": "inconclusive [inhibitor, partial curve]"},
      {"smiles": "CC(=O)Nc1ccc(S(=O)(=O)NC2=C(N3CCN(Cc4ccccc4)CC3)C(=O)c3ccccc3C2=O)cc1", "Potency": "active: 10.3 µM"},
      {"smiles": "CCc1nc2ccc(C(=O)NCc3ccccc3OC)cn2c1N(CC)CCOC", "Potency": "active: 16.4 µM"},
      {"smiles": "CC(C)Cn1c2c(c(O)c(C(=O)Nc3nc4ccccc4s3)c1=O)CCCC2", "Potency": "inconclusive [inhibitor, single point]"},
      {"smiles": "O=C(COc1ccccc1Br)NCc1ccccn1", "activity change, negative = growth inhibition": "inconclusive: -35.6% [inhibitor]"},
      {"smiles": "CC(C)(C)OC(=O)N1CCC[C@H]1c1nnc(SCc2ccccc2F)o1", "Potency": "inconclusive [inhibitor, single point]"},
      {"smiles": "COCC(=O)Nc1nc2ccc(S(C)(=O)=O)cc2s1", "Potency": "inactive"},
      {"smiles": "Cc1c(-c2ccccc2)oc2c(C(=O)N3CCN(c4ccccc4F)CC3)cccc2c1=O", "Potency": "active: 20.6 µM"},
      {"smiles": "Cc1ccc(-n2nc(-c3ccco3)cc2C(=O)NCc2cccnc2)cc1", "Potency": "inconclusive [inhibitor, single point]"},
      {"smiles": "CC(C)(C)c1cccc(P(=O)(c2ccccc2)c2ccccc2)c1O", "Potency": "inactive"},
      {"smiles": "CC1(C(=O)NS(=O)(=O)C2CC2)CCCN(C(=O)c2ccccc2OC(F)(F)F)C1", "note": "(stereo not given)", "Potency": "inconclusive [inhibitor, partial curve, poor fit]"},
      {"smiles": "COc1ccc(S(=O)(=O)N2CCCC(C(=O)Nc3cccc(C(C)=O)c3)C2)cc1", "note": "(stereo not given)", "Potency": "inconclusive [inhibitor, single point]"},
      {"smiles": "CC1CCCC(C)N1Cc1cn2ccccc2n1", "note": "(stereo not given)", "Potency": "inactive"},
      {"smiles": "CC(=O)c1ccc(N2CCN(C(=O)COc3ccc4c(c3)CCC4)CC2)cc1", "Potency": "inconclusive [inhibitor, single point]"},
      {"smiles": "COc1ccc(S(=O)(=O)N(C)C[C@@H]2Oc3cc(Br)ccc3S(=O)(=O)N([C@H](C)CO)C[C@@H]2C)cc1", "Potency": "inconclusive [inhibitor, single point]"},
      {"smiles": "Cc1ccc(C(=O)NCc2ccccc2)cc1NC(=O)c1nsc2ccccc12", "Potency": "inconclusive [inhibitor, single point]"}
    ]}
  ]
}
